Measured values: the supplement of paper PMC5499739
The full ranking holds about 16,000 sequences; the median of “Z-score” is about -0.37, and the highest 2% start at about 3.2. The list shows a part of the results.

The sequences below were run on RBM10 RRM1-ZnF (GST-tagged construct) (assay: RNAcompete 7-mer binding Z-score; higher = stronger binding preference).
Procedure, shortened: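 GST-tagged RBM10 constructs (20 pmol) and a designed pool of 241 399 RNAs up to 41 nt (1.5 nmol) were allowed to bind for 30 min at 4°C in 1 ml Hepes pH 7.8 buffer with glutathione Sepharose beads. After four 2-min washes at 4°C, bound RNA was identified by microarray hybridisation. Enrichment was scored per heptamer motif as a one-sided Z-score across the probes containing it.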

Sequence	RNAcompete 7-mer binding Z-score
CGCUCUU	-0.795
ACCCAGC	-0.587
UACCUCU	-0.746
AUGAGAU	0.241
CCAAUUU	-0.928
CGGGAAU	1.68
AGCAAGC	-0.136
CGUUCUA	-0.811
AACUCAA	-0.555
GCCUUUA	-0.805
UUGUAUG	-0.113
UAUGCUC	-0.805
GUCCUGA	-0.506
UGUCUAC	-0.626
UCAACCA	-0.636
AGGUGUC	0.508
CAAAUCA	-0.707
AUACCAU	-0.828
GGCGCAU	0.183
GGUGAUA	1.87
ACAGACG	0.111
CCCGAUA	-0.659
CGAAUUC	-0.769
CAAACAC	-0.623
CAUUCUU	-0.789

Sequence	RNAcompete 7-mer binding Z-score
CGAUAGA	-0.149
UCGGAUU	-0.279
CAAUAUC	-0.668
AUGAAGU	0.42
CCUCUGC	-0.665
GGCACUG	0.709
CCAAGGC	-0.171
AAACGAU	-0.262
CAACUAU	-0.649
CCAGUUU	-0.831
UUAUUUU	-0.756
AGCACAG	-0.145
UCCGGAU	-0.0902
UUGACCG	-0.678
UUGUUUG	0.0138
CACUUUC	-0.928
UGUUAAC	-0.552
AACGCCU	-0.886
CCCAAAA	-0.818
AGUUGAU	0.212
CCGUUGA	-0.591
GAAUGCU	-0.184
AGCAUCG	-0.334
CGAGUCG	-0.301
UCCAUCC	-0.636

Sequence	RNAcompete 7-mer binding Z-score
GCGCGCA	0.0723
AUUUCAG	-0.613
GUGUUGA	0.846
GUGACAC	0.0495
UACCCGU	-0.753
GGUAAAG	3.32
AGUCUGG	0.14
GACCCUU	-0.945
UAUCUCU	-0.74
CUAUUUA	-0.824
CACAACU	-0.766
CUACUAC	-0.769
AUUGUCU	-0.737
GUGCGCG	1.16
GCAACAG	0.173
CGACUGG	0.602
ACUCCUG	-0.724
GUGGGGU	4.71
AUUCACC	-0.74
CGCUCUC	-0.617
CCCGGUG	0.105
AGGUAUA	1.23
UCAUGUG	-0.22
CAUAGCU	-0.665
CCUAGCU	-0.753

Sequence	RNAcompete 7-mer binding Z-score
UGCCAAA	-0.772
ACCUGGU	-0.509
UGGGGAG	3.36
CGUUGUU	-0.422
CAACGGU	0.261
AGUAGGA	2.8
CUAAUAC	-0.828
ACUCCGU	-0.785
AUUCCAA	-0.75
UCGAGAG	0.0853
UACAGAG	0.0755
AAGGUGC	2.39
AGCUAGG	1.29
GAUAGUG	1.28
GUGGGCG	3
AUAUAAC	-0.574
UUCGAGG	0.202
UGUAACG	-0.227
CAGGUAU	0.706
UACAGUC	-0.412
GAGUUCG	-0.181
UCCCAUC	-0.707
GGGUGUC	2.7
GCUCGAG	-0.0512
UUACUCA	-0.72

Sequence	RNAcompete 7-mer binding Z-score
CAGACUU	-0.828
GUGGUAC	1.63
CGCAAGC	-0.633
GUUUUGU	0.41
AUCUGCU	-0.834
GCUACUG	-0.308
UGAGUUA	0.0398
GCUUCCA	-0.698
GAUGAUC	-0.194
GCGACGG	1.44
GUGACGG	2.02
AAAUUAU	-0.503
CCCCUUC	-0.529
AUUGUGA	0.309
AUGUCGU	-0.409
GGCUAAG	0.465
CCUCCGU	-0.717
AUCACUC	-0.711
GUGCUAA	0.153
CCGGUUC	-0.565
CAGGAAA	0.94
CCUUCAC	-0.795
UCCUCAA	-0.854
AUACGUA	-0.201
GCACACA	-0.262

Sequence	RNAcompete 7-mer binding Z-score
UUUUAUG	-0.613
CUGAUUU	-0.737
GUAUUGU	-0.0772
GCCAUGU	-0.483
UUAUCAG	-0.399
UCCCACU	-0.694
ACUUAAG	-0.493
CCGAUAA	-0.532
UUAUAUC	-0.629
CGAGCGU	0.0495
AACGAGC	0.16
CCAGCGG	0.404
GAGCGUU	0.199
CGUCGUC	-0.279
GAGACCG	-0.0999
UUCCGCC	-0.756
AACCGGA	-0.0512
GUUACAG	0.589
AGAUGAA	1.5
UGGCGAU	0.365
GGACCGC	-0.191
CCGACUC	-0.808
GGUGCAA	1.25
UGUAAGG	1.29
AAUGGAU	2.64

Sequence	RNAcompete 7-mer binding Z-score
AGCGUAG	0.482
UGGUGGA	2.86
UGAGUAG	0.946
UCUGUGA	-0.581
UGAACGG	1.75
CUUUACG	-0.779
AGCGGUC	0.131
GAGUGCC	-0.158
CAACUUG	-0.513
GUUAAGC	-0.194
CACGCCG	-0.35
UAUGCUA	-0.477
AAAUGCG	-0.0772
GUCGCUA	-0.243
ACAAGCC	-0.75
UGCUCGA	-0.532
CAGCAUG	-0.113
UUAAAGU	-0.565
CUAUUCA	-0.737
CUUCUAA	-0.821
UCUGGAU	-0.214
UAUUAGA	-0.0837
UAAGGCC	-0.311
CUCGAGG	0.215
CCGCUGG	-0.168

Sequence	RNAcompete 7-mer binding Z-score
GCGGCUG	0.556
GGAACUC	0.111
GGCUUGA	0.264
UGGCACG	0.449
ACGAUCA	-0.396
AGGAGCU	0.729
UCCUUUA	-0.951
UAUUACC	-0.86
UAGCUAA	-0.292
CUUCGAU	-0.704
CCGCGCC	-0.292
GGGGAUC	2.29
UUGGUUG	0.917
UUUCCGG	-0.509
GGCGGUA	1.48
UCGGGCG	1.09
ACUUGUA	-0.649
GAUAGAG	1.58
UAGUACC	-0.769
AGUCCGG	-0.00246
GCCCGAG	-0.295
CAGUAAU	-0.314
GCUCCGC	-0.506
UUUGGUU	0.482
GCAUGGA	2.01

Sequence	RNAcompete 7-mer binding Z-score
GCCUACA	-0.828
UCUGAAU	-0.759
CCUGCGU	-0.522
UCCCUCC	-0.457
CUACUGG	-0.233
CGCUGAU	-0.483
ACAUUUA	-0.694
UACAGCG	-0.168
AAAAGAG	0.855
GACUGAG	0.381
AUUAAUC	-0.552
UUAUGCG	-0.402
GCGCGCG	0.579
UGGCUAG	0.391
CCCAUUG	-0.704
UAAUGUA	-0.0707
AGGGAAC	2.57
UCUUCCU	-0.691
CAAAUGG	0.852
CCUACUC	-0.698
GUUUACC	-0.467
GCGUUCU	-0.629
GUCUCAC	-0.629
GUCAAUA	-0.305
CAGAAAG	0.566

Sequence	RNAcompete 7-mer binding Z-score
AUAAGAU	-0.175
CGACUCU	-0.766
GACACGC	-0.522
AAAAGAC	-0.201
AUCAGGA	0.923
AGCUCGA	-0.285
AGUACUA	-0.24
ACGAGAG	0.725
CCGUAGC	-0.737
GGUUCUU	-0.269
CUAGGGC	0.667
GACAGUU	-0.207
CAAGGUC	-0.00246
CGGACCG	-0.428
GAUACGA	0.0723
CGAAACG	-0.253
GUAUACA	0.0593
AAGCCAU	-0.886
CGUCCAA	-0.604
UGCAAUA	-0.448
AUCAGUG	0.173
UGUCUUC	-0.685
CUACUCA	-0.685
CUGUUUU	-0.841
AUCAGCG	-0.23

Sequence	RNAcompete 7-mer binding Z-score
GGACGCA	0.465
AGCAGGG	3.04
GUGCAUG	0.807
CGGUCGC	-0.0772
UGAGUGG	2.58
UCAGAUG	0.0268
CAGUAGC	-0.422
UCUUCUC	-0.85
AGAUAGA	0.251
AAGCCUU	-0.938
UCAUUAG	-0.357
GUCGCAU	-0.275
AUAGUCC	-0.681
GGAUCUU	-0.194
CAAAGGC	-0.106
CUGAGCG	0.296
ACGAGUG	0.872
ACAGAUC	-0.578
UAGACCU	-0.668
UCUGUUC	-0.74
GACCGCU	-0.821
CGAUACC	-0.574
UAACGAC	-0.649
UCAAUUC	-0.818
CUGGUAG	0.657

Sequence	RNAcompete 7-mer binding Z-score
AGAUCGC	-0.75
UUUACAG	-0.454
UUACCCC	-0.698
UCAGCGG	0.309
AUAUAUC	-0.503
UGGCAAA	0.777
GCAAUCA	-0.37
UAACGGC	-0.272
UAUUGUC	-0.584
GUUCAUC	-0.662
GCUUCGA	-0.581
UUUGUCC	-0.776
UACAGUU	-0.503
GAGCGCU	-0.477
CGGUAGU	0.287
UGGAAUU	0.732
UCUUGGA	-0.223
AAGACGC	-0.0609
CAUUUUU	-0.997
GUGCCAU	-0.503
AUCAACU	-0.662
UGUAUAU	-0.318
CACUGCU	-0.86
UCGCAGG	0.355
ACCCUAC	-0.795

Sequence	RNAcompete 7-mer binding Z-score
CAUGCCC	-0.681
CUGUUUC	-0.711
UGCUUUC	-0.772
GGGAUUG	3.5
UUCGCGU	-0.578
GCUGCAC	-0.272
AGUGUAA	0.553
CUUCACC	-0.785
ACGGUGU	1
GUUGUAA	0.147
GUGAGCG	1.86
GUGGACG	2.17
UGGGGAC	3.17
CGGCGAA	0.313
UAAUUCG	-0.451
CGUCGCA	-0.477
AUGGACG	2.69
GUUAACU	-0.321
GAUUCUC	-0.649
GAUGGCC	-0.0544
AGAAAUG	1.12
AGAGAUC	-0.422
GUCAACC	-0.672
GUCAUCU	-0.675
UAGACUC	-0.73

Sequence	RNAcompete 7-mer binding Z-score
UGCGCGU	-0.119
CUUACCG	-0.75
GAAAUAA	-0.259
UCCUAUC	-0.857
UCAGCCA	-0.659
UAGUAAA	-0.129
UAAGGUU	2.04
UUGGUUU	0.92
CAGGCGC	0.0365
CGUAGCC	-0.6
CGGAGUC	0.147
UAAUUUG	-0.513
UUUUGAA	-0.61
CACGUAA	-0.35
UUCCAUA	-0.763
UUUUAAG	-0.571
UGAUAAG	0.244
CCAGGGU	1.29
GACACGU	-0.24
CUUAUGG	-0.262
GUGGAAC	1.61
AGGUCUA	-0.288
GUCGGGG	2.71
AAUAUCG	-0.392
CUUAACC	-0.828

Sequence	RNAcompete 7-mer binding Z-score
AUCGAGC	-0.34
AAUUUUG	-0.642
UGGGAGC	2.86
CCAGGCG	0.192
CGCAAUC	-0.665
GCGGCUU	-0.178
UUGACAA	-0.548
AUGUUUG	0.176
ACGUAAU	-0.529
GAAAGAC	0.0885
CAACCAC	-0.642
UUAUAAU	-0.448
UGACCUG	-0.668
CAAGGCC	-0.331
ACUUCGA	-0.626
CUUUCCG	-0.85
AGUAUAG	0.716
